Source: PubChem BioAssay AID1963974 (Molecular Pharmacology Branch, DTP, NCI, 2024)
For part of its entries the source gives two or more results. Only these are listed. An entry can have further records. Values that stand side by side repeat one measurement across runs, samples, wells, individuals or studies.

Test system: 648629-189-R-J1-PDC spheroids with HUVEC/MSC, viability
Assay: Anticancer human tumor 648629-189-R-J1-PDC patient-derived bladder carcinoma cell line growth inhibition [PI3K]
Details: stronger effect = lower value
Description: Combinatorial screen of targeted agents with the PI3K inhibitors inavolisib, alpelisib, duvelisib, and copanlisib in multi-cell type tumor spheroids
A high-throughput screen of multi-cell type tumor spheroids was designed to identify active combinations of targeted small molecules and PI3K pathway inhibitors. Complex spheroids include a stromal component modeled by human endothelial cells (HUVEC) and fibroblasts modeled by human mesenchymal stem cells (MSCs). The concentration ranges selected for each drug and investigational agent were based upon clinically achievable concentrations if the clinical Cmax of the agent was known.
Compounds. The drugs and investigational agents: inavolisib (NSC800729), alpelisib (NSC765974), duvelisib (NSC772469), copanlisib (NSC816437), ipatasertib (NSC767898), afuresertib (NSC778305), talazoparib (NSC767125), sapanisertib (NSC764658), selumetinib (NSC741078), tovorafenib (DAY101, NSC766906), vemurafenib (NSC761431), ravoxertinib (NSC781343), sotorasib (NSC818433), MRTX1133 (NSC 836407), abemaciclib (NSC 768073), palbociclib (NSC758247), venetoclax (NSC 766270), SY5609 (NSC837396), enzalutamide (NSC755605), and darolutamide (NSC825331), were obtained from the National Cancer Institute (NCI) Developmental Therapeutics Program Chemical Repository. The FDA-approved anticancer drug set is available from the NCI Developmental Therapeutics Program. […] The stock solutions were prepared in dimethyl sulfoxide (DMSO, Sigma-Aldrich, St. Louis, MO, cat. D2650) at 800-fold the tested concentration and stored at -70 degrees C prior to their use. All drugs and investigational agents were tested over a range starting from a high concentration at or near the clinical Cmax and decreasing in half-log increments. If the clinical Cmax for an agent had not been determined, the highest concentration tested was 10 microM.
Cell Culture. All cells were maintained in an incubator at 37 degrees C and 5% CO2 with 95% humidity. The PDC lines were cultured according to standard operating procedures established by the NCI PDMR (https://pdmr.cancer.gov/sops/default.htm). All PDCs were thawed and cultured in Matrigel-coated flasks prepared with a working solution of 1X Ham's F-12 nutrient mix, without supplementation (Invitrogen, Waltham, MA, cat. 11765054), 100 U/mL penicillin-streptomycin (Invitrogen, cat. 15140122), and 2.5% Matrigel (Corning Inc., Corning, NY, cat. 354248) for the first three passages. […]
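Further: spheroids exposed to agents for seven days before reading; percent of vehicle control luminescence where 100% = DMSO treated spheroids.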

Row | SMILES | viability, T/C (compound alone 10 µM) | viability, T/C (compound alone 0.1 µM)
1 | CC1(C)CCC(CN2CCN(c3ccc(C(=O)NS(=O)(=O)c4ccc(NCC5CCOCC5)c([N+](=O)[O-])c4)c(Oc4cnc5[nH]ccc5c4)c3)CC2)=C(c2ccc(Cl)cc2)C1 | 10.6, 7.77, 68.4, 107% | 
2 | CC(C)NCC(C(=O)N1CCN(c2ncnc3c2C(C)CC3O)CC1)c1ccc(Cl)cc1 (centres undefined) |  | 98.2, 103, 88, 72.6%
3 | C#Cc1c(F)ccc2cc(O)cc(-c3ncc4c(N5CC6CCC(C5)N6)nc(OCC56CCCN5CC(F)C6)nc4c3F)c12 (centres undefined) |  | 109, 94.7, 92.8, 119%
4 | Cn1ncc(Cl)c1-c1cc(C(=O)NC(CN)Cc2cccc(F)c2)sc1Cl (centres undefined) | 3.77, 98.5, 11.1, 6.71% | 
